Experimental data as given in PubChem BioAssay AID886 (National Center for Advancing Translational Sciences (NCATS), 2007).
Several values for one entry are separate records, joined by “and”; a condition that tells them apart may be missing. Identical values can stand only once. Screen size: about 73,000 compounds; about 2,500 (3.4%) were called active. This list was built around the results that the source calls inconclusive (neither active nor inactive); the mix of calls is not that of the screen. Calls come from the whole dose curve; as a rule, active = well fitted inhibition curve with a large enough effect; inconclusive = small, poorly fitted or top-dose-only effect; inactive = no such curve, though single readings can be large or run the other way. A potency beside an inconclusive call is a rough fit, not a confirmed value.
% is set by controls: 0 for no effect and ±100 for the full control effect; potency is the fitted concentration of half-maximal effect; tags give direction and shape of the fitted curve.
Note: nearly all actives have a fitted effect of over 60% in size.

What follows are compounds tested against 3-hydroxyacyl-CoA dehydrogenase type-2 (Homo sapiens) (UniProt Q99714) (assay: qHTS Assay for Inhibitors of HADH2 (Hydroxyacyl-Coenzyme A Dehydrogenase, Type II)). Conditions: recombinant HADH2, NADH fluorescence, beta-hydroxybutyryl-CoA; activity change, negative = inhibition: at 57.1 µM (top of the series).
Sequence of UniProt Q99714 (Q99714 whole entry, looked up): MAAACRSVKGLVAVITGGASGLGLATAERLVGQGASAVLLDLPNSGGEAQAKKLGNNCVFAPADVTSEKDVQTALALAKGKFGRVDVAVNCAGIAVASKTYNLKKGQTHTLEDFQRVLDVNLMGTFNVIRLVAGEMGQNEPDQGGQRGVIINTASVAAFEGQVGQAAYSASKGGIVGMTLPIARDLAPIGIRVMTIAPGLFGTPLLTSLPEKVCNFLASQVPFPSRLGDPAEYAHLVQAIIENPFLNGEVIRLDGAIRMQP
Sequence of UniProt Q99714 (Q99714 whole entry, looked up): as above
In short: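 Activity measured as NADH fluorescence gain (360/450 nm), taken as the change between first and last reads of a 4-min kinetic run. Conditions: pH 9.0 Tris buffer, 20 nM E. coli-expressed His-tagged enzyme, 1 mM NAD+, 90 uM beta-hydroxybutyryl-CoA; 15-min compound preincubation.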
For `CCc1sc(C(=O)Nc2ccsc2C(=O)OC)cc1Br`, the Potency was inconclusive: 31.6 µM [inhibitor, single point].
With `CCN(CC)C(=O)CSc1nnc([C@@H](NC(=O)OC(C)(C)C)C(C)C)o1` the Potency was inconclusive: 7.94 µM [inhibitor, single point].
With `Cc1cc(=O)oc2cc(NC(=O)C3COc4ccccc4O3)ccc12` (stereo unspecified) the Potency was inconclusive: 25.1 µM [inhibitor, single point].
With `COc1cccc(-n2c(SCC(N)=O)nc3c([nH]c4ccccc43)c2=O)c1` the Potency was inconclusive: 31.6 µM [inhibitor, single point].
With `COc1ccccc1-c1cc(C(=O)Nc2c(F)cc(F)cc2Br)no1` the Potency was inconclusive: 39.8 µM [inhibitor, single point].
In the case of `O=C(COC(=O)C1CC2C=CC1C2)NCc1ccco1` (stereo unspecified), the Potency is reported as inconclusive: 1 µM [inhibitor, full curve, poor fit].
For `c1ccc2c(c1)NC1(CCCCC1)n1c-2nc2ccccc21`, the Potency was active: 25.1 µM.
`Nc1cc(OC(=O)c2cccs2)nn1S(=O)(=O)c1ccccc1` was tested, and the Potency was inconclusive: 7.94 µM [inhibitor, partial curve].
With `N=C1N=C(N)c2cc3ccccc3cc21` the Potency was inconclusive: 15.8 µM [inhibitor, full curve].
With `Cc1ccsc1C=Nc1ccc(O)cc1` the Potency was active: 2.51 µM.
For `Cn1ccnc1C(O)c1ccco1` (stereo unspecified), the “activity change, negative = inhibition” value was inactive: 0.92%.
`CCOc1ccc2[nH]c(=O)c(C(c3nnnn3Cc3ccco3)N3CCCC(C)C3)cc2c1` (stereo unspecified) was tested, and the Potency was inconclusive: 31.6 µM [inhibitor, single point].
In the case of `CC(=O)NC1(c2cccc(F)c2)CCN(C(=O)Nc2ccc(C#N)cc2)CC1`, the “activity change, negative = inhibition” value is reported as inactive: 1.97%.
With `O=C(Cc1cccs1)Nc1ccc(-c2nnn(CC(=O)N3CCOCC3)n2)cc1` the Potency was inconclusive: 25.1 µM [inhibitor, partial curve].
In the case of `CCOc1ccc(CN2CCN(c3cc(C)nc4c5c(C)cc(C)nc5nn34)CC2)cc1`, the Potency is reported as inconclusive: 25.1 µM [inhibitor, partial curve].
`N#Cc1nc(-c2ccccc2F)oc1N1CCCC1` was tested, and the Potency was active: 12.6 µM.
With `Cc1nn(-c2nnc(C)c(=O)[nH]2)c(C)c1SCC(=O)Nc1ccc(C(C)C)cc1` the Potency was inconclusive: 25.1 µM [inhibitor, single point].
`Cc1cc(NS(=O)(=O)c2ccc(Nc3nc(-c4sc(N)nc4C)cs3)cc2)no1` was tested, and the Potency was active: 12.6 µM.
With `CCCc1cc(=O)[nH]c(SCC(N)=O)n1` the Potency was inconclusive: 39.8 µM [inhibitor, single point].
`Cc1ccc(-c2ccc(CCC(=O)O)n2Cc2ccco2)cc1` was tested, and the Potency was inconclusive: 39.8 µM [inhibitor, single point].
With `COc1ccc(NS(=O)(=O)c2cc(C)ccc2NC(=O)c2cc(C)oc2C)cc1` the Potency was inconclusive: 2.51 µM [inhibitor, partial curve].
In the case of `CC(=O)N1CSCC1C(=O)N1CCN(c2ccc(N3CCOCC3)nn2)CC1` (stereo unspecified), the Potency is reported as inconclusive: 25.1 µM [inhibitor, single point].
With `CN(Cc1ccco1)c1ncncc1-c1ccccc1Cl` the Potency was inconclusive: 7.94 µM [inhibitor, partial curve].
In the case of `Cn1c(C(=O)N2COCC2(C)C)cc2c(=O)n3ccccc3nc21`, the Potency is reported as active: 25.1 µM.
With `CCCCNc1nc(C)nc2c1nc(-c1ccccc1)n2CCN(C)C` the Potency was inconclusive: 39.8 µM [inhibitor, single point].
With `NCCCCCCNS(=O)(=O)c1ccc2c(Cl)cccc2c1` the “activity change, negative = inhibition” value was inactive: 9.48%.
For `CCOc1ccc2cc(S(=O)(=O)N3CCOCC3)ccc2c1`, the Potency was inconclusive: 25.1 µM [inhibitor, single point].
In the case of `O=C(NC1CCCCCC1)C1CCN(c2nc3ccccc3o2)CC1`, the “activity change, negative = inhibition” value is reported as inactive: 10.2%.
With `Cc1nc2ccccn2c1-c1nnco1` the Potency was inconclusive: 31.6 µM [inhibitor, single point].
`Cc1cc(C)c(C#N)c(=N)o1` was tested, and the Potency was active: 3.16 µM.
For `CN(C)/N=N/c1nc[nH]c1C(N)=O`, the “activity change, negative = inhibition” value was inactive: -7.8%.
In the case of `O=C(Nc1ccccc1F)N(CCCN1CCOCC1)Cc1cc2cc3c(cc2[nH]c1=O)OCCO3`, the Potency is reported as inconclusive: 31.6 µM [inhibitor, single point].
`Cc1cc(SCC(=O)c2ccccc2)nc(C)n1` was tested, and the Potency was inconclusive: 31.6 µM [inhibitor, single point].
For `Cn1c(=O)c(=O)n(C)c2cc(S(=O)(=O)N3CCCCC3)ccc21`, the Potency was inconclusive: 39.8 µM [inhibitor, single point].
`CCOC(=O)c1c(C2COc3ccccc3O2)csc1NC(=O)c1ccco1` (stereo unspecified) was tested, and the Potency was active: 3.16 µM.
In the case of `Cc1ccccc1Nc1nnc(SCC(=O)NC(=O)NCc2ccco2)s1`, the Potency is reported as inconclusive: 25.1 µM [inhibitor, single point].
`CO[C@@H]1COC(=O)[C@H](C)NC(=O)[C@@H](C)COC(=O)CCC[C@H]1C` was tested, and the activity change, negative = inhibition was inactive: 3.69% [at 11.4 µM].
With `CN(CCNC(=O)c1cc2c(=O)n(C)c3ccccc3c2n1C)Cc1ccccc1` the Potency was inconclusive: 31.6 µM [inhibitor, partial curve].
In the case of `CS(=O)(=O)c1cccc(C(=O)NCc2ccccc2)c1`, the Potency is reported as inconclusive: 2.51 µM [inhibitor, partial curve].
`COC(=O)c1ccc(C(=O)OC)c(NC(=O)COc2ccccc2OC)c1` was tested, and the Potency was active: 10 µM.
With `COc1ccc(NC(=O)c2cnc(C)cn2)c2ncccc12` the Potency was inconclusive: 5.01 µM [inhibitor, single point].
With `Cc1ccc(NC(=O)c2ccccc2O)cc1` the “activity change, negative = inhibition” value was inactive: -6.51%.
With `N#Cc1cnc(SCC(=O)Nc2ccccc2C(F)(F)F)nc1N` the “activity change, negative = inhibition” value was inactive: 1.94%.
In the case of `Nc1nc(N)c(CCCCc2ccccc2)c(N)n1`, the activity change, negative = inhibition is reported as inactive: -1.06% [at 11.4 µM].
For `N#CCCN1CCN(C(=S)c2ccc(-c3cccc(Cl)c3)o2)CC1`, the Potency was inconclusive: 31.6 µM [inhibitor, single point].
For `CCOc1ccc2c(c1)C(C)=CC(C)(C)N2`, the Potency was active: 15.8 µM and active: 20 µM.
For `COc1ccc(OC)c(-c2nnc(-c3ccc(C)o3)o2)c1`, the Potency was active: 12.6 µM.
`Cc1oc(C(=O)O)cc1COc1ccc2c(C)cc(=O)oc2c1` was tested, and the Potency was inconclusive: 31.6 µM [inhibitor, single point].
For `CSc1ccc(Cl)c(C(=O)OCC(=O)N2CCOCC2)c1`, the “activity change, negative = inhibition” value was inactive: 1.92%.
In the case of `Cc1c(OCc2nn[nH]n2)ccc2c(-c3ccccc3)cc(=O)oc12`, the Potency is reported as inconclusive: 6.31 µM [inhibitor, single point].
For `CCC(CC)(CC(=O)Nc1cccc(/C=C/c2nc(C3CCC3)cs2)c1)C(=O)O`, the Potency was active: 12.6 µM.
For `C[Si](C)(C)C#Cc1ccccc1NC(=S)Nc1ccccc1`, the Potency was active: 15.8 µM.
In the case of `CCOc1ccc(-c2nnc(-c3ccncc3)o2)cc1`, the “activity change, negative = inhibition” value is reported as inactive: 14.1%.
For `CC1CN(c2oc(-c3ccco3)nc2C#N)CC(C)O1` (stereo unspecified), the Potency was active: 31.6 µM.
`Cc1cccc(NC(=O)CSc2nnc(CSc3nc(C)cc(C)n3)n2Cc2ccco2)c1` was tested, and the “activity change, negative = inhibition” value was inactive: 10%.
For `CC(C)(C)C(=O)Nc1ccc(-c2cn3ccsc3n2)cc1`, the “activity change, negative = inhibition” value was inactive: 10.3%.
With `Cc1cccc(CNc2nc(-c3c(C)noc3C)nc3ccccc23)c1` the Potency was inconclusive: 31.6 µM [inhibitor, single point].
`O=C(O)CCCCCNc1nc(=S)[nH]c2ccccc12` was tested, and the Potency was inconclusive: 31.6 µM [inhibitor, single point].
In the case of `CC(=O)Nc1ccn(-c2ccccc2)n1`, the Potency is reported as inconclusive: 31.6 µM [inhibitor, single point].
`Cc1ccc(S(=O)(=O)N(C)CC(=O)Nc2ccncc2)cc1` was tested, and the Potency was inconclusive: 2 µM [inhibitor, partial curve].
With `Cc1ccc(C(=O)CSc2ccccn2)cc1` the Potency was active: 3.16 µM.
`CCOC(=O)C1C(=O)NC(SCC(N)=O)=C(C#N)C1c1ccccc1OCC` (stereo unspecified) was tested, and the Potency was inconclusive: 31.6 µM [inhibitor, single point].
`COC(=O)c1ccc(C(NC(=O)OCc2ccccc2)/C(=C/[C@@H](C)C(=O)NCc2cc(C)n(C)n2)c2cccnc2)cc1` (stereo partly specified) was tested, and the “activity change, negative = inhibition” value was inactive: 0.312%.
For `O=C(/C=C\C=C/c1ccc2c(c1)OCO2)N1CCCCC1`, the Potency was inconclusive: 15.8 µM [inhibitor, single point].
With `O=C(Nc1ccc(-c2nnc(-c3ccccc3)o2)cc1)C1CCCO1` (stereo unspecified) the Potency was inconclusive: 31.6 µM [inhibitor, single point].
`COc1cccc(-c2nn(-c3ccccc3)cc2CO)c1` was tested, and the “activity change, negative = inhibition” value was inactive: 11.1%.
With `CCC(=O)Nc1ccc2c(c1)nc1n2CCSC1` the Potency was inconclusive: 25.1 µM [inhibitor, partial curve].
For `Cc1ccc(OCC(=O)Nc2ccc(-c3nc4ncccc4o3)cc2)c(C)c1`, the Potency was inconclusive: 0.794 µM [inhibitor, single point].
With `CC(C)Cn1c(N)c(C(=O)CSc2ccc3c(c2)OCCO3)c(=O)n(C)c1=O` the “activity change, negative = inhibition” value was inactive: 23.1%.
In the case of `COc1cccc(NS(=O)(=O)c2cn(C)c(=O)n(C)c2=O)c1`, the Potency is reported as inconclusive: 1 µM [inhibitor, full curve].
`Cc1nc2cnc(N3CCN(C)CC3)nc2n(C)c1=O` was tested, and the “activity change, negative = inhibition” value was inactive: 17.4%.
For `O=c1c(O)c(-c2ccc(O)c(O)c2)oc2cc(O)ccc12`, the Potency was active: 2.51 µM and active: 1.26 µM.
`CNC(=O)[C@@]1(Cc2ccccc2)C=C[C@@H](C)N1C(=O)OC` was tested, and the Potency was inconclusive: 3.98 µM [inhibitor, single point].
In the case of `CCOc1cc(-c2cc(-c3ccc(N)cc3)nc(N)c2C#N)ccc1O`, the Potency is reported as inconclusive: 25.1 µM [inhibitor, partial curve].
With `O=C(CSc1nnc(-c2ccc(O)cc2)n1Cc1ccco1)c1cccs1` the Potency was inconclusive: 31.6 µM [inhibitor, single point].
For `Cc1cc(S(=O)(=O)N2CCN(c3ccc(F)cc3)CC2)c(C)s1`, the “activity change, negative = inhibition” value was inactive: -0.849%.
